Measurements taken from the supplement of paper PMC10338343.
± gives the standard deviation. This is a selection; strong and weak results do not stand in their true shares.

system: MIWI (PIWIL1) piRISC loaded with L1MC piRNA (30 nt); assay: pre-steady-state target cleavage rate (min^-1); MIWI and MILI are mouse PIWI proteins and EfPiwi is from a freshwater sponge; tags in brackets are library labels; higher = faster piRNA-guided slicing of the target; details: guide: L1MC piRNA 5'p-UAACUAAAUACUAUGCAAGCUGUAGGUCCU; auxiliary factor: 500 nM mouse GTSF1
Procedure: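 Cleave-'n-Seq: a library of target RNAs (target site embedded in constant flanks, ACAGCATTCCGCGTTAGTGATATCCG... 5' flank; DNA-blocked outside the site) at 0.1 nM was incubated with 1 nM active mouse MILI or MIWI piRISC (synthetic 5'-monophosphorylated piRNA guide) with or without 500 nM mouse GTSF1 at 33 °C for 1 min to 16 h. Uncleaved targets were sequenced and normalised to non-target controls, and the pooled three trials were fitted to a burst-and-steady-state model to give the pre-steady-state cleavage rate (min^-1; k3 is constrained to at most 1e-4). Sequence is the target site only; target names encode pairing extent (gX:gY) and contiguous / 1-mismatch / 2-mismatch / bulge geometry. Fits with R² ≤ 0 are excluded.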

| Sequence | pre-steady-state target cleavage rate |
| --- | --- |
| UCCUGCUACAGUUGCAUAGUAUUUAGUUA | 0.787 ± 0.045 |
| UCCUGGAACAGCUUGCAUAGUAUAAAGUAA | 0.36 ± 0.064 |
| UCCUGGUACAGCUUGCAUAGUAUUGUAGUUA | 0.248 ± 0.031 |
| UCCUCCUACAGUUGCAUAGUAUUUAGUUA | 0.742 ± 0.046 |
| UCCUGGUACAGCUUGCUAAGUAUUUUCAAA | 0.00472 ± 0.0045 |
| UCCUCCUACUCCUUGCAUAGUAUUUUCAAA | 0.216 ± 0.035 |
| UGGACCUACAGCUGUGCAUAGUAUUUAGUUA | 1.28 ± 0.11 |
| UCCUGGAUGAGCUUGGAUAGUAUUAAGUUA | 0.199 ± 0.032 |
| UGGACCUACAAGCUUGCAUAGUAUUUAGUUA | 1.03 ± 0.058 |
| UGGACGAACAGCUUGCAUAGUAUUUACAAA | 0.264 ± 0.033 |
| UCCUGGUACAGCUAGCAUAGUAUUUAGUAA | 0.422 ± 0.05 |
| UCCACCUACAGCUUGCAUGGUAUUUAGUUA | 1.3 ± 0.061 |
| UCCUGGAACAGCUAGCAUAGUAUAUAGUUA | 0.422 ± 0.04 |
| UCCUGGAUGAGCUUGCAUAGUAUUUAGUCA | 0.51 ± 0.044 |
| UCCUCCUUGAGCUUGCAUAGUAUUUUCAAA | 0.11 ± 0.02 |
| UGGACCUACAGCUUGCAUACUAUUUACUUA | 0.132 ± 0.015 |
| UCCUGGAUGAGCUUGCAUAGUAAUUAGAAA | 0.0194 ± 0.0086 |
| AGCACCUACAGCUUGCAUAGUAUUUAGAAA | 0.753 ± 0.12 |
| UCCUGGAUGUGCUUGCUUAGUAUUUAGUUA | 0.109 ± 0.01 |
| UCGACCUACAGCUUGCAUAGAUUUUAGAAA | 0.214 ± 0.062 |
| UCCUGGAUGAGCUUGCUUAGUAUAUAGUUA | 0.0747 ± 0.013 |
| UCGACCUUGAGCUUGCAUAGUAUUUAGAAA | 0.439 ± 0.059 |
| UCCUGCUACAACUUGCAUAGUAUUUAGUUA | 0.679 ± 0.044 |

same assay, conditions: guide: L1MC piRNA 5'p-UAACUAAAUACUAUGCAAGCUGUAGGUCCU; auxiliary factor: none (no GTSF1)

| Sequence | pre-steady-state target cleavage rate |
| --- | --- |
| UCCUGCUACAGUUGCAUAGUAUUUAGUUA | 0.00425 ± 0.0025 |
| UCCUGGAACAGCUUGCAUAGUAUAAAGUAA | 0.00442 ± 0.0033 |
| UCCUGGUACAGCUUGCAUAGUAUUGUAGUUA | 0.0142 ± 0.0037 |
| UCCUCCUACAGUUGCAUAGUAUUUAGUUA | 0.00376 ± 0.0017 |
| UGGACCUACAGCUGUGCAUAGUAUUUAGUUA | 0.0389 ± 0.0098 |
| UCCUGGAUGAGCUUGGAUAGUAUUAAGUUA | 0.0143 ± 0.0056 |
| UGGACCUACAAGCUUGCAUAGUAUUUAGUUA | 0.0528 ± 0.0098 |
| UGGACGAACAGCUUGCAUAGUAUUUACAAA | 0.0071 ± 0.0022 |
| UCCUGGUACAGCUAGCAUAGUAUUUAGUAA | 0.00728 ± 0.0033 |
| UCCACCUACAGCUUGCAUGGUAUUUAGUUA | 0.0488 ± 0.01 |
| UCCUGGAACAGCUAGCAUAGUAUAUAGUUA | 0.0104 ± 0.0033 |
| UCCUGGAUGAGCUUGCAUAGUAUUUAGUCA | 0.0317 ± 0.0075 |
| UGGACCUACAGCUUGCAUACUAUUUACUUA | 0.0153 ± 0.0035 |
| UCCUGGAUGUGCUUGCUUAGUAUUUAGUUA | 0.0193 ± 0.0049 |
| UCCUGGAUGAGCUUGCUUAGUAUAUAGUUA | 0.0101 ± 0.0035 |
| UCGACCUUGAGCUUGCAUAGUAUUUAGAAA | 0.00608 ± 0.0026 |
| UCCUGCUACAACUUGCAUAGUAUUUAGUUA | 0.0522 ± 0.0072 |
